This is one part of the list. Most values come without repeats; read them as rough.
Key:
Test in all cases: cell count relative to DMSO control; melanoma cells; higher = more viable cells
Settings in all cases: library dose: standard library concentration; 72 h
[1] = test system: SkMel28
[2] = test system: SkMel2
[3] = test system: SkMel30
[4] = test system: SkMel5
[5] = test system: UACC257
[6] = test system: UACC62
[7] = test system: WM115
[8] = test system: WM1716
[9] = test system: WM3526
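Also: cells treated in 1,536-well plates, then fixed and DAPI-stained, with nuclei counted from automated high-throughput microscope images.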

Compound	cell count [1]	cell count [2]	cell count [3]	cell count [4]	cell count [5]	cell count [6]	cell count [7]	cell count [8]	cell count [9]
Cn1c(=O)n(-c2ccc(C(C)(C)C#N)cc2)c2c3cc(-c4cnc5ccccc5c4)ccc3ncc21 + COc1cc(N2CCC(N3CCN(C)CC3)CC2)ccc1Nc1ncc(Cl)c(Nc2ccccc2S(=O)(=O)C(C)C)n1 [NVP-TAE684] (first compound 0.02 µM, partner dose 0.4 µM)	31.4%	45.7%	69.6%	58%	83.9%	48%	56.3%	61.9%	45.2%
CC(C)C[C@H](NC(=O)[C@H](Cc1ccccc1)NC(=O)c1cnccn1)B(O)O [Bortezomib] + COc1ccc(COc2ccc(Cc3cnc(N)nc3N)cc2OC)cc1 [GW2580] (first compound 0.005 µM, partner dose 5 µM)	29.4%	72%	37.1%	34.5%	72.3%	48.7%	27.1%	19.5%	26.8%
Cc1cc(Nc2cc(N3CCN(C)CC3)nc(/C=C/c3ccccc3)n2)n[nH]1 + Oc1nc(-c2ccc(C(F)(F)F)cc2)nc2c1CSCC2 [XAV939] (first compound 0.2 µM, partner dose 10 µM)	55%	96%	124%	73.8%	92.3%	89.9%	80.8%	72.4%	108%
Cn1c(=O)n(-c2ccc(C(C)(C)C#N)cc2)c2c3cc(-c4cnc5ccccc5c4)ccc3ncc21 + O=c1cc(-c2cccc3c2Sc2ccccc2S3)oc(N2CCOCC2)c1 [KU55933] (first compound 0.02 µM, partner dose 5 µM)	50.8%	66.1%	57%	71.1%	99%	67.2%	72.8%	66.8%	75.2%
Cc1cc(Nc2cc(N3CCN(C)CC3)nc(/C=C/c3ccccc3)n2)n[nH]1 + Oc1cc(-c2nc(-c3ccccc3)[nH]c2-c2ccncc2)ccc1Cl [L779450] (first compound 0.2 µM, partner dose 1 µM)	35.8%	17.7%	80.8%	37.7%	80.9%	57.4%	41.3%	60.9%	37%
COc1ccc(C2=N[C@@H](c3ccc(Cl)cc3)[C@@H](c3ccc(Cl)cc3)N2C(=O)N2CCNC(=O)C2)c(OC(C)C)c1 [Nutlin-3] + COc1ccc(COc2ccc(Cc3cnc(N)nc3N)cc2OC)cc1 [GW2580] (first compound 0.5 µM, partner dose 5 µM)	54.9%	93.1%	96.1%	47.8%	65.2%	70%	76.9%	77.4%	89.3%
Cc1cn(-c2cc(NC(=O)c3ccc(C)c(Nc4nccc(-c5cccnc5)n4)c3)cc(C(F)(F)F)c2)cn1 [nilotinib] + COc1ccc(-c2ccc3c(N4CCOCC4)nc(N4C[C@@H](C)O[C@@H](C)C4)nc3n2)cc1CO [KU0063794] (first compound 1 µM, partner dose 0.1 µM)	63.6%	80.1%	97.7%	59%	104%	67.6%	67%	91.9%	74.7%
COc1ccc(C2=N[C@@H](c3ccc(Cl)cc3)[C@@H](c3ccc(Cl)cc3)N2C(=O)N2CCNC(=O)C2)c(OC(C)C)c1 [Nutlin-3] + O=C(O)C(=O)Nc1sc2c(c1C(=O)O)CCNC2 [TCS401] (first compound 0.5 µM, partner dose 8.33333 µM)	45.3%	87.6%	110%	78.1%	81.6%	75.6%	85.1%	87.4%	81.5%
CC(C)C[C@H](NC(=O)[C@H](Cc1ccccc1)NC(=O)c1cnccn1)B(O)O [Bortezomib] + O=C(O)C(=O)Nc1sc2c(c1C(=O)O)CCNC2 [TCS401] (first compound 0.005 µM, partner dose 8.33333 µM)	58.2%	79.2%	48.9%	31.2%	74.9%	66.6%	29.5%	17.1%	33.1%
COc1ccc(C2=N[C@@H](c3ccc(Cl)cc3)[C@@H](c3ccc(Cl)cc3)N2C(=O)N2CCNC(=O)C2)c(OC(C)C)c1 [Nutlin-3] + CCc1ccc(CCOc2ccc(CC3SC(=O)NC3=O)cc2)nc1 [pioglitazone] (first compound 0.5 µM, partner dose 10 µM)	54%	87.8%	127%	66.7%	85.8%	63.7%	59.3%	77.7%	91.4%
CC(C)C[C@H](NC(=O)[C@H](Cc1ccccc1)NC(=O)c1cnccn1)B(O)O [Bortezomib] + c1cc(-c2cnn3cc(-c4ccc(OCCN5CCCCC5)cc4)cnc23)ccn1 [Dorsomorphin] (first compound 0.005 µM, partner dose 2 µM)	27.1%	23.6%	25.3%	25%	63.8%	45.8%	25.9%	25.9%	31.8%
CC(C)C[C@H](NC(=O)[C@H](Cc1ccccc1)NC(=O)c1cnccn1)B(O)O [Bortezomib] + Cc1cc([N+](=O)[O-])ccc1NS(=O)(=O)c1cc(Cl)ccc1Cl [FH535] (first compound 0.005 µM, partner dose 5 µM)	27.2%	43.1%	38.1%	26.1%	68.2%	59.6%	33.8%	17.5%	28.6%
Cn1c(=O)n(-c2ccc(C(C)(C)C#N)cc2)c2c3cc(-c4cnc5ccccc5c4)ccc3ncc21 + CCN(CC)CCCCNc1ncc2cc(-c3cc(OC)cc(OC)c3)c(NC(=O)NC(C)(C)C)nc2n1 [PD173074] (first compound 0.02 µM, partner dose 0.5 µM)	53%	54.8%	87.2%	72%	110%	64.3%	73.8%	69.7%	84.9%
CC(C)C[C@H](NC(=O)[C@H](Cc1ccccc1)NC(=O)c1cnccn1)B(O)O [Bortezomib] + COc1ccc(-c2ccc3c(N4CCOCC4)nc(N4C[C@@H](C)O[C@@H](C)C4)nc3n2)cc1CO [KU0063794] (first compound 0.005 µM, partner dose 0.1 µM)	31.5%	69%	30.5%	33.6%	82.5%	67.4%	34.3%	18.1%	42.1%
Cc1cn(-c2cc(NC(=O)c3ccc(C)c(Nc4nccc(-c5cccnc5)n4)c3)cc(C(F)(F)F)c2)cn1 [nilotinib] + Oc1cc(-c2nc(-c3ccccc3)[nH]c2-c2ccncc2)ccc1Cl [L779450] (first compound 1 µM, partner dose 1 µM)	47.1%	33.6%	120%	45.7%	92.8%	44.6%	49.8%	79.4%	47.1%
COc1ccc(C2=N[C@@H](c3ccc(Cl)cc3)[C@@H](c3ccc(Cl)cc3)N2C(=O)N2CCNC(=O)C2)c(OC(C)C)c1 [Nutlin-3] + COc1ccc(-c2ccc3c(N4CCOCC4)nc(N4C[C@@H](C)O[C@@H](C)C4)nc3n2)cc1CO [KU0063794] (first compound 0.5 µM, partner dose 0.1 µM)	46.7%	73.2%	90.7%	46.7%	77.1%	73.3%	59.1%	66.9%	77.5%
Cc1cn(-c2cc(NC(=O)c3ccc(C)c(Nc4nccc(-c5cccnc5)n4)c3)cc(C(F)(F)F)c2)cn1 [nilotinib] + c1cc(-c2cnn3cc(-c4ccc(OCCN5CCCCC5)cc4)cnc23)ccn1 [Dorsomorphin] (first compound 1 µM, partner dose 2 µM)	76.6%	74%	84.5%	57.5%	107%	57.5%	76.3%	89.1%	83.1%
CC(C)C[C@H](NC(=O)[C@H](Cc1ccccc1)NC(=O)c1cnccn1)B(O)O [Bortezomib] + CCc1ccc(CCOc2ccc(CC3SC(=O)NC3=O)cc2)nc1 [pioglitazone] (first compound 0.005 µM, partner dose 10 µM)	22%	39.7%	33.7%	29.2%	65%	70%	25.9%	18.9%	30.7%
Cc1cn(-c2cc(NC(=O)c3ccc(C)c(Nc4nccc(-c5cccnc5)n4)c3)cc(C(F)(F)F)c2)cn1 [nilotinib] + COC(=O)c1sccc1S(=O)(=O)Nc1ccc(Nc2ccccc2)cc1OC [GSK0660] (first compound 1 µM, partner dose 5 µM)	91.7%	101%	91%	65.4%	85.2%	93.6%	88.1%	86.5%	79.5%
COc1ccc(C2=N[C@@H](c3ccc(Cl)cc3)[C@@H](c3ccc(Cl)cc3)N2C(=O)N2CCNC(=O)C2)c(OC(C)C)c1 [Nutlin-3] + O=c1cc(-c2cccc3c2Sc2ccccc2S3)oc(N2CCOCC2)c1 [KU55933] (first compound 0.5 µM, partner dose 5 µM)	44.2%	65.6%	73.2%	61.5%	71.6%	57.8%	59.9%	59%	62.5%
